Test results: PubChem BioAssay AID1347073 (National Center for Advancing Translational Sciences (NCATS), 2019)
About 200 (0.44%) of roughly 45,000 compounds were called active. Another 7% or so got no clear call; they are omitted. Calls come from the whole dose curve; as a rule, active = well fitted activation curve with a large enough effect; inconclusive = small, poorly fitted or top-dose-only effect; inactive = no such curve, though single readings can be large or run the other way. The list shows a part of the results.

experiment: qHTS of TDP-43 Inhibitors: NCGC Sytravon Library Screen; settings: yeast TDP-43 toxicity rescue, BacTiter-Glo growth, 24 h; series mostly up to 46.1 µM; growth rescue (activation): at the top concentration; note: 0% is about no effect; nearly all actives have a fitted effect of over 55% in size
Summary of the method: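 TDP-43-expressing yeast, pregrown in raffinose, seeded at OD600 0.02 in galactose medium with compound for 24 hr at 30 deg C. Growth read by BacTiter-Glo luminescence, so rescue of toxicity appears as activation.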

Row | Compound | growth rescue (activation)
1 | CC(C)COP(=O)(c1ccc(N(C)C)cc1)C(O)c1ccccc1 (stereo not drawn) | inactive: 7.55%
2 | CC1CCCN(S(=O)(=O)c2ccc(NC(=O)C3CCN(C(=O)c4ccco4)CC3)cc2)C1 (stereo not drawn) | inactive: 15.6%
3 | CC(=O)Nc1ccccc1/C=C/c1ccc2c(C)cc(C)c(O)c2n1 | inactive: -13.8%
4 | CCN(c1ccccc1)S(=O)(=O)c1csc(C(N)=O)c1 | inactive: 6.43%
5 | Cc1cccc(C(C#N)c2ccc(Cl)nn2)c1 (stereo not drawn) | inactive: -0.711%
6 | Cc1ccc(S(=O)(=O)N2CCN(CCOc3ccccc3)CC2)cc1 | inactive: 7.67%
7 | O=C(Cc1cccs1)Nc1ccc(S(=O)(=O)N2CCCC2)cc1 | inactive: 7.98%
8 | C/C(CCc1ccco1)=N/NC(=O)CCC(=O)Nc1ccc(Br)cc1 | inactive: 12.2%
9 | NC(c1csc(NC(=O)Nc2cccc(C(F)(F)F)c2)n1)C1CCCCC1 (stereo not drawn) | inactive: 7.88%
10 | COc1ccc(N2C(=O)C3ON(C4SC(=S)N(C)C4(C)C)C(c4ccc(Cl)cc4)C3C2=O)cc1 (stereo not drawn) | inactive: 20.9%
11 | CCCC1(C(=O)OC)NC(c2ccc(OC)c(OC)c2)C2C(=O)N(c3cccc(C(C)=O)c3)C(=O)C21 (stereo not drawn) | inactive: -15.3%
12 | N#C/C(=C(/O)COC(=O)c1ccc(Cl)c(S(=O)(=O)N2CCOCC2)c1)c1nc2ccccc2[nH]1 | inactive: 6.42%
13 | O=C(CN1C(=O)NC2(CCCCC2)C1=O)NCCc1ccc(Cl)cc1Cl | inactive: -9.88%
14 | Cc1cccc(NC(=S)N2CCC(O)CC2)c1C | inactive: 11.9%
15 | Cc1cc(C(=O)C(=O)O)c(C)n1-c1ccc(Cl)cc1 | inactive: -8.4%
16 | CCOC(=O)NN1C(=O)c2ccccc2NC1c1ccc(OC)c(OC)c1 (stereo not drawn) | inactive: 10.3%
17 | O=c1c2ccccc2c(/C=N/c2ncn[nH]2)c(O)n1Cc1ccccc1 | inactive: 9.31%
18 | CN(CC(=O)NCCc1ccc(Cl)cc1)S(=O)(=O)c1cccs1 | inactive: 20.3%
19 | CC(=O)c1c(C)nc(-c2ccccc2)nc1NC(=O)C(C)C | inactive: 6.03%
20 | CCOC(=O)c1c(-c2ccc(OC)cc2)csc1/N=C/C1C(=O)CCCC1=O | inactive: 20%
21 | Cc1c(O)ccc2c(CN(C)Cc3ccccc3)cc(=O)oc12 | inactive: -6.49%
22 | Cc1cccc(NCc2ccc(O)c3ncccc23)c1C | inactive: -21.3%
23 | CS(=O)(=O)N1CCc2cc(S(=O)(=O)N3CCCCC3)ccc21 | inactive: 3%
24 | CC(=O)Nc1ccc(N(C(=O)CNC(=O)c2ccco2)C(C(=O)NCC2CCCO2)c2ccccc2)cc1 (stereo not drawn) | inactive: -5.08%
25 | CNC(=O)CSc1nnc(SCCC(=O)O)s1 | inactive: 2.62%
26 | O=C1OC(/C=C/c2ccccc2)=NC/1=C\c1cccnc1 | inactive: -16.6%
27 | Cc1ccc(OCCNc2cc(N3CCN(CCO)CC3)ccc2[N+](=O)[O-])cc1C | inactive: 12.9%

Row | Compound | growth rescue (activation)
28 | COc1cccc(C(C)(O)c2nc(-c3cncnc3)cs2)c1 (stereo not drawn) | inactive: 16.9%
29 | COC(=O)COc1ccc(S(=O)(=O)N2CCCCC2)cc1[N+](=O)[O-] | inactive: 9.27%
30 | O=C(NC(=S)NCC1CCCO1)c1ccccc1Br (stereo not drawn) | inactive: -1.89%
31 | O=C(COC(=O)c1ccc[n+]([O-])c1)Nc1ccccc1OC(F)F | inactive: -3.76%
32 | O=C(Nc1ccc(Cl)cc1C(=O)N1CCCC1)c1cccc([N+](=O)[O-])c1 | inactive: -8.6%
33 | CCCOc1ccc(N2C(=O)CC(NNC(=O)c3ccc(COc4ccccc4)o3)C2=O)cc1 (stereo not drawn) | inactive: 12.8%
34 | CCN(CC)CCn1c(N)nc2ccccc21 | inactive: 8.51%
35 | Cc1cccc(C)c1NC(=O)CN(C)CC(=O)N1CC(=O)Nc2ccccc21 | inactive: 5.06%
36 | Cc1cccc(C)c1NC(=O)Cn1c(=O)n(CCC(=O)NCc2ccc3c(c2)OCO3)c(=O)c2sccc21 | inactive: 12.9%
37 | COc1ccc(-c2c(C(F)(F)F)oc3c(CN4CCN(C)CC4)c(O)ccc3c2=O)cc1 | inactive: -18.2%
38 | Cc1ccccc1OCc1nnc(SCc2nc3ccccc3c(=O)[nH]2)n1C | inactive: -5.1%
39 | COC(=O)[C@@H](NC(=O)NC1CCCCC1C)C(C)C (stereo partly drawn) | inactive: 11.2%
40 | Cc1ccc([N+](=O)[O-])cc1S(=O)(=O)Nc1ccccn1 | inactive: 4.74%
41 | CCOC(=O)Cc1csc(NC(=S)NC(=O)c2ccc([N+](=O)[O-])cc2)n1 | inactive: 6.88%
42 | CC(C(=O)Nc1ncc2c(n1)CC(C)(C)CC2=O)N1C(=O)c2ccccc2C1=O (stereo not drawn) | inactive: -18.7%
43 | CC(C)c1ccc(C2NC(=O)c3ccccc3O2)cc1 (stereo not drawn) | inactive: 16.7%
44 | O=C(Nc1ccccn1)[C@@H]1CCC(=O)N1C(=O)OCc1ccccc1 | inactive: -8.75%
45 | COCCN(C(=O)CSc1nnc(-c2ccccc2F)n1C)c1c(N)n(Cc2ccccc2)c(=O)[nH]c1=O | inactive: 8.83%
46 | CN1CCN(CCCCOc2cccc3ccccc23)CC1 | inactive: 1.25%
47 | COCCN(C(=S)Nc1ccc(OC)cc1)C1CCN(C(C)C)CC1 | inactive: -0.637%
48 | Cc1ccc(NC(=O)COC(=O)CN2C(=O)C3CCCCC3C2=O)cc1S(=O)(=O)N1CCOCC1 (stereo not drawn) | inactive: -17.6%
49 | Nc1nc(Nc2cccc(F)c2)nc(NCc2ccco2)c1[N+](=O)[O-] | inactive: 20%
50 | CN(C)c1ccc(/C=N/NC(=O)c2ccccc2)cc1 | inactive: -5.95%
51 | CC(=O)c1ccc(N=C2SCCCN2C(=O)C2CCCC2)cc1 | inactive: 8.23%
52 | COc1ccc(N2CC(C(=O)N3CCN(c4ccccc4OC)CC3)CC2=O)cc1 (stereo not drawn) | inactive: 9.31%
53 | CSCCC(C(=O)OCC(=O)c1ccc(C)c(C)c1)N1C(=O)c2ccccc2C1=O (stereo not drawn) | inactive: -18.8%
